# From PubChem BioAssay AID2675 (National Center for Advancing Translational Sciences (NCATS), 2010)
# Among all 280,000 compounds or so, about 100 (0.036%) were called active. The shares of active, inactive and inconclusive entries below differ from those in the screen. Calls come from the whole dose curve; as a rule, active = well fitted inhibition curve with a large enough effect in the signal ratio, with a control signal flat (not every such curve was filed as active); inconclusive = small, poorly fitted or top-dose-only effect, or effect the other way, or a change in a side signal; inactive = no such curve, though single readings can be large or run the other way; the % refers to the signal ratio. A potency beside an inconclusive call is a rough fit, not a confirmed value. A note “side channel” means that the fit belongs to a control or component signal, not to the main read-out.
# Molecular target: Muscleblind-like protein 1 (Homo sapiens) (UniProt Q9NR56)
# Experiment: qHTS Assay for Inhibitors of MBNL1-poly(CUG) RNA binding
# Details: TR-FRET MBNL1-His/biotin-(CUG)12 binding, 665/545 ratio; series mostly up to 57.5 µM
# Outline: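 Inhibition of protein-RNA binding appears as loss of TR-FRET between terbium anti-His antibody on MBNL1-His and streptavidin-XL665 on biotin-(CUG)12. Activity is normalized to buffer-only and uninhibited-complex controls.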
# Potency is the fitted concentration of half-maximal effect; tags give direction and shape of the fitted curve or compound fluorescence and quenching.
# UniProt Q9NR56, sequence (Q9NR56 whole entry, looked up): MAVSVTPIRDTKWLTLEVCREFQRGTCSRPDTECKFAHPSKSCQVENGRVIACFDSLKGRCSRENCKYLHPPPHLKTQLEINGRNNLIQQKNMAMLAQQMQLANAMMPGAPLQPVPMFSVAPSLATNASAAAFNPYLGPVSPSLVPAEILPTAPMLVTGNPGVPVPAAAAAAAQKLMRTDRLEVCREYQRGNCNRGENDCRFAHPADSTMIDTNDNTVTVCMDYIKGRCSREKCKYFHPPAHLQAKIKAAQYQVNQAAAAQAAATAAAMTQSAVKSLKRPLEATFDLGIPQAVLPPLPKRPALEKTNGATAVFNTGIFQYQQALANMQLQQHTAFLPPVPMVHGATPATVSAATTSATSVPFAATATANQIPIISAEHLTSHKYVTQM
row,Structure (SMILES),Potency
1,CC(=O)Nc1ccc(N2C(=O)CSC2c2ccccc2[N+](=O)[O-])cc1 (stereo unspecified),"inconclusive: 31.6 µM [quencher, side channel, single point]"
2,Cc1cc(C)n(CC(=O)Nc2ccc([N+](=O)[O-])cc2)n1,"inconclusive: 31.6 µM [quencher, single point]"
3,Cc1c(N=C2NC(=O)/C(=C/c3ccc(O)cc3)S2)c(=O)n(-c2ccccc2)n1C,"inconclusive: 44.7 µM [quencher, side channel, single point]"
4,CC1(C)CC(C)(c2ccc(O)cc2O)N(c2ccc3ccccc3c2)C(=S)N1 (stereo unspecified),inactive
5,CCOc1cc(/C=N/Nc2nc(N3CCCCC3)nc(N3CCCCC3)n2)ccc1OC(=O)c1ccco1,inactive
6,CC(=O)Nc1ccc(S(=O)(=O)NNC(=O)c2ccc([N+](=O)[O-])cc2)cc1,"inconclusive: 8.91 µM [quencher, side channel, partial curve]"
7,[O-][n+]1c2c(nc3c1-c1ccccc1C3O)CCCC2 (stereo unspecified),"inconclusive: 1.58 µM [quencher, side channel, full curve]"
8,N/C(=N\OC(=O)c1ccc(Cl)cc1[N+](=O)[O-])c1ccccn1,"inconclusive: 12.6 µM [quencher, side channel, partial curve]"
9,COc1ccc(/C=C\C(=O)NCc2ccc3c(c2)cc(C)n3C)cc1OC,"inconclusive: 25.1 µM [quencher, side channel, partial curve]"
10,Cc1nn(Cc2ccccc2)c(C)c1NC(=O)c1ccc([N+](=O)[O-])cc1[N+](=O)[O-],"inconclusive: 14.1 µM [quencher, side channel, partial curve, poor fit]"
11,CC(NC(=O)COc1ccc(/C=N/NC(=O)CO)cc1)c1ccccc1 (stereo unspecified),"inconclusive: 39.8 µM [quencher, side channel, single point]"
12,COc1ccc(N2CCN(C(=O)CN=C3NS(=O)(=O)C(c4ccc(C)cc4)=C3C)CC2)cc1,"inconclusive: 3.98 µM [quencher, side channel, single point]"
13,CCCN1CC=C2C(C#N)=C(N)C(C#N)(C#N)C(c3cccc(OC)c3OC)C2C1 (stereo unspecified),"inconclusive: 22.4 µM [quencher, side channel, partial curve, poor fit]"
14,O=C(O)c1cccc(Nc2ccncc2[N+](=O)[O-])c1,"inconclusive: 15.8 µM [quencher, side channel, partial curve]"
15,CCOc1cc(/C=C2/SC(=O)N(CC(=O)N3CCc4ccccc4C3)C2=O)ccc1OCC(=O)O,"inconclusive: 14.1 µM [quencher, side channel, partial curve]"
16,Cc1nnc(-c2cnn(C)c2N)n1CCCN1CCOCC1,"inconclusive: 0.794 µM [fluorescent, side channel, single point]"
17,COC(=O)CCC(=O)Oc1ccc(OC(=O)CCC(=O)OC)cc1,inactive
18,Nc1ccc(C(=O)OCC(=O)Nc2ccc([N+](=O)[O-])cc2C(F)(F)F)cc1,"inconclusive: 14.1 µM [quencher, side channel, partial curve]"

row,Structure (SMILES),Potency
1,O=C(CN1C(=O)S/C(=C\c2ccccn2)C1=O)Nc1ccccc1,inactive
2,Cc1ccc(NC(=O)NCc2nc3ccccc3n2C)cc1,inactive
3,CCOC(=O)N1CCC(Nc2ccc(N3C(=O)C4CCCCC4C3=O)cc2[N+](=O)[O-])CC1 (stereo unspecified),"inconclusive: 15.8 µM [quencher, side channel, partial curve]"
4,COc1ccc(CC(=O)NCC2(c3ccc(OC)c(OC)c3)CCOCC2)cc1,"inconclusive: 39.8 µM [quencher, side channel, single point]"
5,C/C(Cn1nnc([N+](=O)[O-])n1)=N\NC(=O)c1ccccc1Cl,"inconclusive: 12.6 µM [quencher, side channel, partial curve]"
6,Cc1cccc(-c2nc3c(c(SCC(=O)N(C)C)n2)CCCC3)c1,"inconclusive: 1.78 µM [fluorescent, side channel, full curve, poor fit]"
7,O=C(c1ccncc1)c1ccc(N2CCN(C3CC(=O)N(Cc4ccccc4)C3=O)CC2)cc1 (stereo unspecified),"inconclusive: 14.1 µM [quencher, side channel, partial curve]"
8,NC(=O)c1ccc(-c2ccc(Br)cc2)o1,"inconclusive: 28.2 µM [quencher, side channel, single point]"
9,O=Cc1nc(-c2ccccc2Cl)n2ccccc12,"inconclusive: 14.1 µM [quencher, side channel, partial curve]"
10,CCn1c(SCC(=O)N/N=C/C=C/c2ccco2)nnc1-c1ccc(OC)cc1,"inconclusive: 8.91 µM [quencher, side channel, partial curve]"
11,CC(=O)Nc1ccc(S(=O)(=O)NCCC(=O)Nc2cccc(Cl)c2)cc1,inactive
12,COC(=O)c1ccc(NC(=S)Nc2ccccn2)cc1,"inconclusive: 39.8 µM [fluorescent, side channel, single point]"
13,COc1ccc(-n2c(O)c(C=NCc3ccccn3)c3ccccc3c2=O)c(OC)c1,"inconclusive: 15.8 µM [quencher, side channel, partial curve]"
14,Cc1ccc(NC(=O)CN(C)c2ccc(S(=O)(=O)N3CCN(C)CC3)cn2)cc1,inactive
15,COc1ccc(-c2nc3c(-c4ccccc4)cnn3cc2C)cc1F,"inconclusive: 0.891 µM [fluorescent, side channel, single point]"
16,O=[N+]([O-])c1c(NCCO)cc(N2CCN(Cc3ccc4c(c3)OCO4)CC2)c2nonc12,"inconclusive: 2.82 µM [quencher, side channel, full curve, poor fit]"
17,O=[N+]([O-])c1ncccc1OCc1ccccc1Br,"inconclusive: 17.8 µM [quencher, side channel, partial curve]"
18,O=[n+]1c2c(n([O-])c3cc(F)ccc31)CCCC2,"inconclusive: 25.1 µM [quencher, side channel, partial curve]"
